The antibiotic and cytotoxicity screens of Wong et al. (2023)
The other results are listed elsewhere or left out.

Key:
HSkMC = human skeletal muscle cells; assay: cytotoxicity call (relative viability < 0.9); settings: 10 µM
HepG2 = assay: cytotoxicity call (relative viability < 0.9); settings: 10 µM
S. aureus RN4220 = assay: growth inhibition call (relative growth <= 0.2); settings: 50 µM

Row | Compound | cytotoxicity call (HSkMC) | cytotoxicity call (HepG2) | growth inhibition call (S. aureus RN4220)
1 | CO[C@@H]1CN(C)C(=O)c2cc(NC(=O)C3CC3)ccc2OC[C@H](C)N(C(=O)C2CCOCC2)C[C@H]1C | inactive | inactive | inactive
2 | C[C@@H]1CN([C@@H](C)CO)S(=O)(=O)c2ccc(C#Cc3cccc(F)c3)cc2O[C@@H]1CN(C)S(=O)(=O)c1cn(C)cn1 | inactive | inactive | inactive
3 | COc1ccc(S(=O)(=O)Nc2ccc3c(c2)C(=O)N([C@H](C)CO)C[C@H](C)[C@H](CN(C)C(=O)C2CCCCC2)OCCCC[C@H](C)O3)cc1 | inactive | active | inactive
